Assay results: the RNAGym collection of RNA variant scans (doi:10.7554/elife.90254)
Read counts are not given, so values of variants with three or more changes are uncertain.

B1: LINE1-mini (parent)
chain: GGCAGAGCUCAACACAGCGUGGCAAAGUGGCUGUGGCUAGACUGCC

Variants of: B1
Assay: self-cleavage, relative activity (ratio to wild type); higher = more cleavage; in vitro, sequencing; the parent is a self-cleaving ribozyme

Row | Variant | self-cleavage
1 | GGCAGAGCUCAACACAGCGUGGCAAAGGGGCAGUUGCUAGACUGCC | 0.16
2 | GGCAGAGCUCAACACAGCGUGGCAAAGUAGAUCUGGCUAGACUGCC | 0.1
3 | GGCAGAGCUCAACACAGCGUGGCAAAGUCGCAGUGGCUAGUCUGCC | 0.44
4 | GGCAGAGCUCAACACAGCGUGGCAAAGUUGGUGUGGCUAGAGUGCC | 0.06
5 | GGCAGAGCUCAACACAGCGUGGCAAAGUAUCUGUAGCUAGACUGCC | 0.01
6 | GGCAGAGCUCAACACAGCGUGGCAAAGUUGCUGUGGUUGGAGUGCC | 0.03
7 | GGCAGAGCUCAACACAGCGUGGCAAAGUUGGUGUGGCUAGACAGCC | 0.55
8 | GGCAGAGCUCAACACAGCGUGGCAAAGGGGCUGUUGCUAGAGUGCG | 0.02
9 | GGCAGAGCUCAACACAGCGUGGCAAAGGGCCUGUGGCUAGACUUCC | 0.04
10 | GGCAGAGCUCAACACAGCGUGGCAAAGGGGUUGUGGCUAGACUCCC | 0.06
11 | GGCAGAGCUCAACACAGCGUGGCAAAUUGGCUGUGUCUGGACUGCC | 0.01
12 | GGCAGAGCUCAACACAGCGUGGCAAAUUGGCUGUGGCGAGACUGCG | 0.05
13 | GGCAGAGCUCAACACAGCGUGGCAAAGUUGCUGUGGCUAGAAUGAC | 0.14
14 | GGCAGAGCUCAACACAGCGUGGCAAAGUAGCUGUGCCUAGGCUGCC | 0.06
15 | GGCAGAGCUCAACACAGCGUGGCAAAUUUGCUGUGGGUAGACUGCC | 0.03
16 | GGCAGAGCUCAACACAGCGUGGCAAAGUUGAUGUGGCUAGAUUCCC | 0.04
17 | GGCAGAGCUCAACACAGCGUGGCAAAGCGGCGGUAGCUAGACUGCC | 0.03
18 | GGCAGAGCUCAACACAGCGUGGCAAAGUCUCUUUGGCUAGACCGCC | 0.02
19 | GGCAGAGCUCAACACAGCGUGGCAAAUUUGCUGUGGCUACACUGCC | 0.21

Row | Variant | self-cleavage
20 | GGCAGAGCUCAACACAGCGUGGCAAACUGGCGGUGGCUAUACUGCC | 0.11
21 | GGCAGAGCUCAACACAGCGUGGCAAAGAGGUUGUGGCAAGACUGCC | 0.27
22 | GGCAGAGCUCAACACAGCGUGGCAAAGGGGCUUUGGCCAGACUGCC | 0.02
23 | GGCAGAGCUCAACACAGCGUGGCAAAUUGGCCGUGGCUAGACUGGC | 0.04
24 | GGCAGAGCUCAACACAGCGUGGCAAAGAGCCUGUGGUUAGACUGCU | 0.03
25 | GGCAGAGCUCAACACAGCGUGGCAAAUUGGGUGUGGCUAUACUGAC | 0.01
26 | GGCAGAGCUCAACACAGCGUGGCAAAUAGGCUGUGGCUAGACUGAC | 0.71
27 | GGCAGAGCUCAACACAGCGUGGCAAAGUCGCAGUCGCUGGUCUGCC | 0.06
28 | GGCAGAGCUCAACACAGCGUGGCAAACUGGCUGUGGCUAGACGGUC | 0.03
29 | GGCAGAGCUCAACACAGCGUGGCAAAGGGGCAGUGGCUAGACAGCC | 0.01
30 | GGCAGAGCUCAACACAGCGUGGCAAAUUGGGUGUGGCUAGACUGAC | 0.06
31 | GGCAGAGCUCAACACAGCGUGGCAAAGCGGGUGUGGCUAGACUGCA | 0.05
32 | GGCAGAGCUCAACACAGCGUGGCAAAGAGGCUCUGGCUAGAAUGCC | 0.04
33 | GGCAGAGCUCAACACAGCGUGGCAAAGCGUCUGUGGCUAGACUGGC | 0.1
34 | GGCAGAGCUCAACACAGCGUGGCAAAGGGGCUAUGGCUAUACUGCC | 0.05
35 | GGCAGAGCUCAACACAGCGUGGCAAAGUAGCUGUAGUUAGACUGCC | 0.01
36 | GGCAGAGCUCAACACAGCGUGGCAAAGCGCCUCUGGCUAGACUGCU | 0.05
37 | GGCAGAGCUCAACACAGCGUGGCAAAUUGGCUGUGGCUAGAUGGCC | 0.15
38 | GGCAGAGCUCAACACAGCGUGGCAAAGUAGCCAUGGCUAGACUGCC | 0.26

Row | Variant | self-cleavage
39 | GGCAGAGCUCAACACAGCGUGGCAAAGAGGCUGUGGCUAGACUGGA | 0.9
40 | GGCAGAGCUCAACACAGCGUGGCAAAGGGGCAGUGGCUAGACUGUC | 0.22
41 | GGCAGAGCUCAACACAGCGUGGCAAAGGGGUUGUAGCUAGACUGCA | 0.02
42 | GGCAGAGCUCAACACAGCGUGGCAAAGUCGCUUUUGCUAGACUGUC | 0.05
43 | GGCAGAGCUCAACACAGCGUGGCAAAGUCCCUGUGGCUAGACCGUC | 0.03
44 | GGCAGAGCUCAACACAGCGUGGCAAAUUGGCUGUCGCUAGUCUGCC | 0.08
45 | GGCAGAGCUCAACACAGCGUGGCAAAGUCGCUGUGUCUCUACUGCC | 0
46 | GGCAGAGCUCAACACAGCGUGGCAAAGAGGCUCUGGCUAGGCUGAC | 0.03
47 | GGCAGAGCUCAACACAGCGUGGCAAAUUGGCUGUGGCUCGAUUGCC | 0.07
48 | GGCAGAGCUCAACACAGCGUGGCAAAGUUGCUGUCGGUAGACUGCC | 0.03
49 | GGCAGAGCUCAACACAGCGUGGCAAAGCGGGUGUGGCUAGGCUGCC | 0
50 | GGCAGAGCUCAACACAGCGUGGCAAAGUUGUUGUGGCUAGACUACC | 0.08
51 | GGCAGAGCUCAACACAGCGUGGCAAACUGGCUGGCGCUAGACUGCC | 0.01
52 | GGCAGAGCUCAACACAGCGUGGCAAAGUCGCAGCGGCUAGACUGCC | 0.05
53 | GGCAGAGCUCAACACAGCGUGGCAAAGAGGCUGUGGCUAGCUUGCC | 0.02
54 | GGCAGAGCUCAACACAGCGUGGCAAAGUUGCUGUGGUUAGACCACC | 0.04
55 | GGCAGAGCUCAACACAGCGUGGCAAAGGGGUUGUGGCUAGAUUGCC | 0.14
56 | GGCAGAGCUCAACACAGCGUGGCAAAGUAGUUGUGGCCUGACUGCC | 0.16
